{"source": "the supplement of paper PMC8728848", "binders": {"B1": {"name": "SialidaseA (Arthrobacter ureafaciens) (protein)", "chain": "MRSNSTSAPSLVRRAATGVLTCAVSIGLLAGLGLPAQAAPTPPNSPTLPPGSFSETNLAADRTAANFFYRIPALTYLGNDVVLAAWDGRPGSAADAPNPNSIVQRRSTDGGKTWGPVQVIAAGHVADASGPRYGYSDPSYIYDAEANKVFAFFVYSKDQGFGGSQFGNDDADRNVISSAVIESSDAGVTWSQPRLITSVTKPGTSKTNPAAGDVRSNFASSGEGIQLKYGPHKGRLIQQYAGDVRQADGSNKIQAYSVYSDDHGVTWHKGANVGDRMDENKTVELSDGRVLLNSRDNANRGYRKVAVSTDGGATYGPVSQDTELPDPANNGAIARMFPNAAQGSADAKKLIFTNANSKTGRENVSARVSCDDGETWPGVRTIRSGFSAYSTVTRLADGKFGVLYEGNYTDNMPFATFDDAWLNYVCAPLAVPAVNIAPSATQEVPVTVTNQEATTLSGATATVYTPSGWSATTVPVPDVAPGASVTVTVALTAPADASGPRSLNAAFTTADGRVSQFTFTATTPVAPQVGLTITGSAPARDVAANPYQAGDVLGYTLNVKSTANVAANSVPLTGTFDSGFLPPAAPNCRYNNLAAGASYNCTTAKHTITAADMERGYFVPEATFSITSTTTPSLTKTVQFTGAAVALRDGLISADISGARTDVGRDLATRPYAAGELVPYAFTVKNTSPFVEQVVPTAGNFSPFLPAGAGNCRYLSLPAGQSYECATPRHAVTAEEVEQGFFVPDTTWEVSAAGQSTRTYRINGGEVDLLVRDAALSATVVAEWKDADGDRFASAGDPVTFTYTVGNAGNVALTGLEAPDAGISLPFLAPGDTATATREHVLTAADVAGGSLAASAFEATARNGSKEVTATAEGQPLELKVQPAQPSKEPELTVQDLEDQTPPFDLGTAFKYRTGQKVSLAGLEYGQWYYVYLNKTGYRLGWMFPTTGDTVEFILPPEVRNGRDDVVVLDKDGRRVSFDRLQVTPKGEKI"}}, "assay_in_all_cases": "glycan array binding signal (z-score within array); higher = stronger binding", "conditions_in_all_cases": "glycan notation: IUPAC condensed, linker removed", "key": {"[1]": {"target": "Fuc(a1-2)Gal6S(b1-3)GlcNAc6S", "summary_of_the_method": "(§1)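 The binding signal is a Z-score computed within each array. Data were drawn from 3228 arrays in the Consortium for Functional Glycomics database, restricted to those with a known protein sequence. Scores were averaged over arrays of the same protein sequence at different concentrations or buffers, and over linkers, and negative values can be taken as non-binding.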"}, "Fuc(a1-2)Gal6S(b1-4)Glc": {"target": "Fuc(a1-2)Gal6S(b1-4)Glc", "summary_of_the_method": "as §1"}, "[2]": {"target": "Fuc(a1-2)Gal6S(b1-4)Glc6S", "summary_of_the_method": "as §1"}, "Fuc(a1-2)[Gal(a1-3)]Gal": {"target": "Fuc(a1-2)[Gal(a1-3)]Gal", "summary_of_the_method": "as §1"}, "[3]": {"target": "Fuc(a1-2)[Gal(a1-3)]Gal(b1-3)GalNAc", "summary_of_the_method": "as §1"}, "[4]": {"target": "Fuc(a1-2)[Gal(a1-3)]Gal(b1-3)GalNAc(b1-3)Gal(a1-4)Gal(b1-4)Glc", "summary_of_the_method": "as §1"}, "[5]": {"target": "Fuc(a1-2)[Gal(a1-3)]Gal(b1-3)GlcNAc", "summary_of_the_method": "as §1"}, "[6]": {"target": "Fuc(a1-2)[Gal(a1-3)]Gal(b1-3)GlcNAc(b1-2)Man(a1-3)[Fuc(a1-2)[Gal(a1-3)]Gal(b1-3)GlcNAc(b1-2)Man(a1-6)]Man(b1-4)GlcNAc(b1-4)GlcNAc", "summary_of_the_method": "as §1"}, "[7]": {"target": "Fuc(a1-2)[Gal(a1-3)]Gal(b1-3)GlcNAc(b1-2)Man(a1-3)[Fuc(a1-2)[Gal(a1-3)]Gal(b1-3)GlcNAc(b1-2)Man(a1-6)]Man(b1-4)GlcNAc(b1-4)[Fuc(a1-6)]GlcNAc", "summary_of_the_method": "as §1"}, "[8]": {"target": "Fuc(a1-2)[Gal(a1-3)]Gal(b1-3)GlcNAc(b1-3)GalNAc", "summary_of_the_method": "as §1"}, "[9]": {"target": "Fuc(a1-2)[Gal(a1-3)]Gal(b1-3)GlcNAc(b1-6)GalNAc", "summary_of_the_method": "as §1"}, "[10]": {"target": "Fuc(a1-2)[Gal(a1-3)]Gal(b1-4)Glc", "summary_of_the_method": "as §1"}, "[11]": {"target": "Fuc(a1-2)[Gal(a1-3)]Gal(b1-4)GlcNAc", "summary_of_the_method": "as §1"}, "[12]": {"target": "Fuc(a1-2)[Gal(a1-3)]Gal(b1-4)GlcNAc(b1-2)Man", "summary_of_the_method": "as §1"}, "[13]": {"target": "Fuc(a1-2)[Gal(a1-3)]Gal(b1-4)GlcNAc(b1-2)Man(a1-3)[Fuc(a1-2)[Gal(a1-3)]Gal(b1-4)GlcNAc(b1-2)Man(a1-6)]Man(b1-4)GlcNAc(b1-4)GlcNAc", "summary_of_the_method": "as §1"}, "[14]": {"target": "Fuc(a1-2)[Gal(a1-3)]Gal(b1-4)GlcNAc(b1-2)Man(a1-3)[Fuc(a1-2)[Gal(a1-3)]Gal(b1-4)GlcNAc(b1-2)Man(a1-6)]Man(b1-4)GlcNAc(b1-4)[Fuc(a1-6)]GlcNAc", "summary_of_the_method": "as §1"}, "[15]": {"target": "Fuc(a1-2)[Gal(a1-3)]Gal(b1-4)GlcNAc(b1-3)GalNAc", "summary_of_the_method": "as §1"}, "[16]": {"target": "Fuc(a1-2)[Gal(a1-3)]Gal(b1-4)GlcNAc(b1-3)[Fuc(a1-2)[Gal(a1-3)]Gal(b1-4)GlcNAc(b1-6)]GalNAc", "summary_of_the_method": "as §1"}, "[17]": {"target": "Fuc(a1-2)[Gal(a1-3)]Gal(b1-4)GlcNAc(b1-6)GalNAc", "summary_of_the_method": "as §1"}, "[18]": {"target": "Fuc(a1-2)[Gal(a1-3)]Gal(b1-4)[Fuc(a1-3)]Glc", "summary_of_the_method": "as §1"}, "[19]": {"target": "Fuc(a1-2)[Gal(a1-3)]Gal(b1-4)[Fuc(a1-3)]GlcNAc", "summary_of_the_method": "as §1"}, "[20]": {"target": "Fuc(a1-2)[Gal(a1-3)]Gal(b1-4)[Fuc(a1-3)]GlcNAc(b1-3)GalNAc", "summary_of_the_method": "as §1"}}, "note": "The other results are listed elsewhere or left out."}
{"binder": "B1", "values": [{"measurement": "glycan array binding signal (z-score)", "setting": "[1]", "result": -0.514}, {"measurement": "glycan array binding signal (z-score)", "setting": "Fuc(a1-2)Gal6S(b1-4)Glc", "result": -0.661}, {"measurement": "glycan array binding signal (z-score)", "setting": "[2]", "result": -0.896}, {"measurement": "glycan array binding signal (z-score)", "setting": "Fuc(a1-2)[Gal(a1-3)]Gal", "result": -0.486}, {"measurement": "glycan array binding signal (z-score)", "setting": "[3]", "result": 0.077}, {"measurement": "glycan array binding signal (z-score)", "setting": "[4]", "result": -0.711}, {"measurement": "glycan array binding signal (z-score)", "setting": "[5]", "result": -0.478}, {"measurement": "glycan array binding signal (z-score)", "setting": "[6]", "result": 0.319}, {"measurement": "glycan array binding signal (z-score)", "setting": "[7]", "result": -0.267}, {"measurement": "glycan array binding signal (z-score)", "setting": "[8]", "result": -0.765}, {"measurement": "glycan array binding signal (z-score)", "setting": "[9]", "result": -0.704}, {"measurement": "glycan array binding signal (z-score)", "setting": "[10]", "result": -0.382}, {"measurement": "glycan array binding signal (z-score)", "setting": "[11]", "result": -0.699}, {"measurement": "glycan array binding signal (z-score)", "setting": "[12]", "result": -0.252}, {"measurement": "glycan array binding signal (z-score)", "setting": "[13]", "result": -0.031}, {"measurement": "glycan array binding signal (z-score)", "setting": "[14]", "result": -0.487}, {"measurement": "glycan array binding signal (z-score)", "setting": "[15]", "result": -0.517}, {"measurement": "glycan array binding signal (z-score)", "setting": "[16]", "result": -0.253}, {"measurement": "glycan array binding signal (z-score)", "setting": "[17]", "result": -0.849}, {"measurement": "glycan array binding signal (z-score)", "setting": "[18]", "result": -0.841}, {"measurement": "glycan array binding signal (z-score)", "setting": "[19]", "result": -0.387}, {"measurement": "glycan array binding signal (z-score)", "setting": "[20]", "result": -0.31}]}
